In PubChem BioAssay AID1963576 (National Center for Advancing Translational Sciences (NCATS), 2024):
The campaign covered roughly 46,000 compounds. About 60 (0.1%) were called active. Another 3% or so got no clear call; they are omitted. Calls come from the whole dose curve; as a rule, active = well fitted inhibition curve with a large enough effect; inconclusive = small, poorly fitted or top-dose-only effect; inactive = no such curve, though single readings can be large or run the other way. The list shows a part of the results.

Assay: Primary qHTS assay for Inhibitors of ovarian cancer metastasis using an organotypic tumor microenvironment (TME) model.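 For activity change, negative = inhibition: plate controls were DMSO wells for no effect and tomatine positive control wells for full effect.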 Note: nearly all actives have a fitted effect of over 65% in size.
Conditions: SKOV3ip1-GFP adhesion/invasion on 3D omental model, fluorescence; series mostly up to 45.8 µM; activity change, negative = inhibition: at the top concentration
Outline: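 A 3D layer of primary human omental fibroblasts, mesothelial cells, fibronectin and collagen I, grown 48 hr, received SKOV3ip1-GFP cells in serum-free medium plus compounds at 0.36-46 umol/L. After 2 hr RT and 16 hr 37 C, fixed adherent GFP cells were counted; normalized to DMSO and tomatine.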

outcome, inactive:
CCCN(C(=O)c1cc2c(=O)oc3ccccc3c2s1)c1ccccc1C
CCC(C)NC(=O)Cn1c(=O)ccc2cc(S(=O)(=O)N3CCCC3)ccc21 (stereo not given)
CCOc1ccc2c(c1)c(=O)c(C(=O)c1ccc(CC)cc1)cn2CC(=O)Nc1ccccc1C
COc1ccc(NC(=O)CN2C(=O)C3(SCC(=O)N3c3cccc(OC)c3)c3ccccc32)cc1 (stereo not given)
CCC(C(=O)N1CCN(c2ccccc2)CC1)n1nc(C)c2sc3ccccc3c2c1=O (stereo not given)
COc1ccc(N2CC(NC(=O)c3c(F)cccc3Cl)CC2=O)cc1OC (stereo not given)
O=C(c1ccc2c(Cl)c3c(nc2c1)CCCC3)N1CCN(c2ccccc2F)CC1
O=C(NCc1ccccc1)c1ccc2c(c1)nc1n2CCCCC1
O=C(Cn1c(=O)c2cccn2c2ccc(F)cc21)N1CCN(c2ccccc2)CC1
CCc1ccc(NC(=O)Cn2c(=O)n(CC3CCCO3)c(=O)c3cc(OC)c(OC)cc32)cc1 (stereo not given)
CC(C)NC(=O)Cn1nc(N2CCN(c3ccccc3)CC2)ccc1=O
CC(=O)N1CCc2c(sc3c2c(=O)n(CCc2ccccc2)c(=O)n3Cc2cccc(C)c2)C1
COCCN1Cc2cccc(C(=O)Nc3ccc(Cl)cc3Cl)c2C1=O
O=C1CC(c2nc(-c3ccccc3)no2)CN1c1ccc2c(c1)OCCO2 (stereo not given)
COC(=O)C1CCN(C(c2ccccc2)c2sc3nc(-c4ccco4)nn3c2O)CC1 (stereo not given)
Cc1cc(Cl)ccc1NS(=O)(=O)c1ccc2c(c1)CC(C)N2C(=O)C1CCC1 (stereo not given)
Cc1c(Cl)cccc1NC(=O)CSc1nc(=O)n(Cc2cccnc2)c2c1CCC2
CCOc1cccc(NC(=O)c2ccc(F)c(S(=O)(=O)N(CC)c3cccc(C)c3)c2)c1
CCOC(=O)c1ccc(CN(Cc2ccc(C)cc2)S(=O)(=O)c2ccc(NC(C)=O)cc2)cc1
CSc1cccc(NC(=O)C2CCN(S(=O)(=O)c3ccc4[nH]c5c(c4c3)CCCCC5)CC2)c1

Activity change, negative = inhibition, inactive:
COc1ccc(N2CCN(c3cc(C)nc4nncn34)CC2)cc1 24.2%
Cc1ccc(C)c(N2CCN(c3nc4c(S(=O)(=O)c5ccccc5)nnn4c4ccc(Cl)cc34)CC2)c1 10.8%
Cc1ccc(CCNC(=O)c2ccc(NC(=O)N3CCSc4ccccc43)cc2)cc1 0.799%
Cc1ccc(CNC(=O)C(C)n2ccc3cc(S(=O)(=O)N4CCCC4)ccc32)cc1 (stereo not given) -16.3%
Cc1ccc(S(=O)(=O)NCCc2csc3nc(-c4ccccc4C)nn23)cc1 8.48%
O=C(CSc1nc2ccccc2n1Cc1c(F)cccc1Cl)N1CCN(c2ccc(F)cc2)CC1 -29.8%
O=C(CSc1nc2ccsc2c(=O)n1Cc1ccccc1Cl)NCc1ccc(Cl)cc1 -8.96%
CCOc1cc(CNC(=O)c2ccc3nc(CCc4ccccc4)oc3c2)ccc1OC -7.37%
CCOc1ccc(N2CC(c3nc4ccccc4n3CCOc3ccc(CC)cc3)CC2=O)cc1 (stereo not given) -8.45%
Cc1ccccc1NC(=O)c1cnc2sc(N3CCCC3)nn2c1=O 8.28%
COc1cccc(C2=CC(c3ccccc3F)n3c(nc4ccccc43)N2)c1 (stereo not given) 1.73%
O=C(Nc1nnc(SCc2cc(=O)n3cc(Cl)ccc3n2)s1)c1cccc(F)c1 -14.1%
Cc1cc(C)cc(NC(=O)Cn2c3ncccc3c(=O)n2-c2ccc(C)c(C)c2)c1 -11.5%
O=C(Cn1cnc2nc3c(cc2c1=O)CCCC3)N1CCN(c2ccccc2)CC1 3.32%
Cc1ccc(CSc2ncc(Cl)c(C(=O)Nc3sc4c(c3C(N)=O)CCCC4)n2)cc1 4.7%
CCc1nn2c(=O)cc(COc3ccc(/C=C(\C#N)C(=O)Nc4ccc(C)cc4)cc3)nc2s1 39.7%
Cc1cccc(N2CCN(Cc3nnc(-c4ccc5c(c4)OCO5)o3)CC2)c1C -21.4%
Cc1cccc(C#Cc2ccccc2)n1 -6.75%
O=C(CN1C(=O)C2CCCCN2c2ccc(C(=O)N3CCCC3)cc21)NCc1cccc(F)c1 (stereo not given) 0.943%
Cc1ccccc1CNC(=O)C(=O)NCC(c1cccs1)S(=O)(=O)c1ccc(Cl)cc1 (stereo not given) 8.46%
COc1ccc(NC(=O)Nc2ccccc2OCc2cc(=O)n3ccccc3n2)c(OC)c1 8.69%
Cc1ccc(-c2cc(C(F)(F)F)c(C#N)c(SCC(=O)O)n2)cc1 -6.67%
COc1ccc2oc(-c3ccc(C)c(NC(=O)CSc4ccc(Cl)cc4)c3)nc2c1 -1.41%
CCOc1cc(C2C(C(=O)OC)=C(C)NC3=C2C(=O)c2ccccc23)c(Br)cc1O (stereo not given) 11.6%
O=c1c(=O)n(Cc2c(F)cccc2Cl)ccn1Cc1ccccc1 2.39%
CCN(CC)c1ccc(NC(=O)CN2C(=O)c3cccnc3Sc3ccccc32)c(C)c1 -0.887%
CN(C1CCc2c(c3ccccc3n2CC(=O)O)C1)S(=O)(=O)c1ccc(F)cc1 (stereo not given) -33.7%
COc1cccc(NC(=O)Cn2c(=O)n(CC(=O)NCCc3ccccc3)c(=O)c3sccc32)c1 5.12%
COc1ccc(N2CCN(C3C(=O)c4ccccc4N3C(C)=O)CC2)cc1 (stereo not given) -10.9%
Cc1ccc(-c2c3c(=O)n(C)c(=O)n(C)c3cn2-c2cc(C)ccc2O)cc1 5.75%
Cc1c(Cl)cccc1-n1ncc(C(=O)Nc2ccc(F)cc2F)c1C1CCN(C(=O)OC(C)(C)C)CC1 10.2%
Cc1ccc(CNC(=O)C2CCN(C(=O)c3cnn(-c4ccccc4)c3-n3cccc3)CC2)cc1 -3.65%
Cc1ccc(Cn2cc(S(=O)(=O)c3ccc(C)cc3)c(=O)c3cc(F)c(N4CCCC4)cc32)cc1 2.58%
Cc1ccc(NC(=O)C2CCCN(S(=O)(=O)c3c(C)n[nH]c3C)C2)cc1C (stereo not given) 4.61%
O=C(Nc1nnc(S(=O)(=O)N2CCCCCC2)s1)c1ccccc1Br -1.62%
COc1ccc(C)cc1NC(=O)Cn1c(=O)oc2cc(S(=O)(=O)NCc3ccccc3)ccc21 5.55%
O=C(C1CCN(S(=O)(=O)Cc2ccccc2)CC1)N1CCN(c2cccc(Cl)c2)CC1 -9.05%
CC(C)CCNC(=O)Nc1cc(C(=O)NCc2cccc(F)c2)ccc1N1CCCC1 7.06%
COc1ccc2c(c1)c1c(c(=O)n(Cc3ccccc3)c(=O)n1CC(=O)Nc1ccc(C)cc1C)n2C 17.5%
COc1ccc2c(c1)CC(C(=O)NCCN1CCN(c3cccc(C)c3C)CC1)CO2 (stereo not given) 1.97%
